Measured values: PubChem BioAssay AID588591 (National Center for Advancing Translational Sciences (NCATS), 2011)
In all, about 390,000 compounds went through this assay and about 4,700 (1.2%) were called active. This list was built around the results that the source calls inconclusive (neither active nor inactive); the mix of calls is not that of the screen. Calls come from the whole dose curve; as a rule, active = well fitted inhibition curve with a large enough effect; inconclusive = small, poorly fitted or top-dose-only effect, or another doubt; inactive = no such curve, though single readings can be large or run the other way. Potencies of inconclusive entries are doubtful fits and often do not repeat.

Each molecule was assayed against DNA polymerase eta (Homo sapiens) (UniProt Q9Y253) (assay: qHTS for Inhibitors of Polymerase Eta). Conditions: recombinant Pol eta, fluorescent DNA replication assay; series mostly up to 114 µM.
Sequence of UniProt Q9Y253 (Q9Y253 whole entry, looked up): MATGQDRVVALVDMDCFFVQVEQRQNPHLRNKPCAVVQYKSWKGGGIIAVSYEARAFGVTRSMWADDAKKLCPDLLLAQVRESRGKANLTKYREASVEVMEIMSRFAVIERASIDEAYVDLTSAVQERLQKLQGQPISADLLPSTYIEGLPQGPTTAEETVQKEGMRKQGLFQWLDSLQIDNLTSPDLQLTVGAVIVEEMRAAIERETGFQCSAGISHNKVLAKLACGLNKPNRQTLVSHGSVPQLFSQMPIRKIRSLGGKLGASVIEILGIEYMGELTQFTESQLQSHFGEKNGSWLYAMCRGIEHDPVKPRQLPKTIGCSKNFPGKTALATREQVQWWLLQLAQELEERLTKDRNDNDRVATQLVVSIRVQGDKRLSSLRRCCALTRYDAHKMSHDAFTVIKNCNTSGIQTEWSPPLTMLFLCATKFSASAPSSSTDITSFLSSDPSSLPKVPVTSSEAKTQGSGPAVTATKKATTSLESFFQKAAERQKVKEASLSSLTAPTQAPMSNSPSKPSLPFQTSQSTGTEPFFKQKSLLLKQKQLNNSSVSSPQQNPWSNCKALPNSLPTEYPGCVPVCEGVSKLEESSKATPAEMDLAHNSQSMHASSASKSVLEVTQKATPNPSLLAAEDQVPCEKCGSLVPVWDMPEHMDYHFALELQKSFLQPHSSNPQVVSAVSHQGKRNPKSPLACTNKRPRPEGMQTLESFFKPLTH
How it was run: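 Pol eta at 10 nM preincubated with compounds 15 min at room temperature; reaction started with fluorescent substrate (50 nM final) and read kinetically at 0 and 10 min.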
Potency is the fitted concentration of half-maximal effect; tags give direction and shape of the fitted curve.

Row | SMILES | Potency
1 | O=C(NNC(=O)c1ccccc1F)c1ccc2[nH]c(=O)c(=O)[nH]c2c1 | inconclusive: 63.1 µM [inhibitor, partial curve, poor fit]
2 | CS(=O)(=O)N1Cc2ccccc2CC1C(=O)O (centres undefined) | active: 8.91 µM
3 | COc1ccccc1NC(=O)COc1ccc(C(=O)OCC(=O)N2CCCC2=O)cc1OC | inconclusive: 10 µM [inhibitor, partial curve]
4 | Cc1ccc2c(c1)C1CN(C)CCC1N2S(=O)(=O)c1ccc(C(C)C)cc1 (centres undefined) | inactive
5 | CCOC1(OCC)C(c2ccc(N)cc2)C(C#N)(C#N)C1(OCC)OCC (centres undefined) | inconclusive: 14.1 µM [inhibitor, partial curve, poor fit]
6 | O=C(CSCc1cnn(-c2ccccc2)c1-n1cccc1)NCc1ccccc1F | inactive
7 | CC(=O)Nc1ccc(Nc2ccc([N+](=O)[O-])cn2)cc1 | inactive
8 | CCOC(=O)c1c(C)[nH]c(N=Nc2cccc(OC)c2)c1C | inconclusive: 79.4 µM [inhibitor, partial curve, poor fit]
9 | Cc1cc(-n2c(=O)c(C#N)cc3c(=O)n4ccccc4nc32)no1 | inconclusive: 15.8 µM [inhibitor, full curve, poor fit]
10 | N#C/C(=C\c1ccc(-c2ccc(C(=O)O)cc2)o1)C(=O)NCC1CCCO1 (centres undefined) | active: 12.6 µM
11 | CC(C)c1nc(Cl)c(C#N)c2c1COC(C)(C)C2 | inconclusive: 79.4 µM [inhibitor, partial curve, poor fit]
12 | O=C(CCC1CCCC1)N1CCN(C(=O)COc2ccccc2)CC1 | inconclusive: 89.1 µM [inhibitor, partial curve, poor fit]
13 | C=CCNc1nc(-c2c(C)nc3sccn23)cs1 | inconclusive: 5.01 µM [inhibitor, full curve, poor fit]
14 | Cc1ccc(C)c(NC(=O)CCc2c(C)n(C)c3cc(-c4ccccc4C)nn3c2=O)c1 | inactive
15 | CC(C)(C)C(=O)NC1CC2CCCC(C1)N2C(=O)Nc1cccc(Cl)c1 (centres undefined) | inactive
16 | CCOc1cc(/C=C2\C(=O)ON=C2c2ccccc2)cc(Br)c1O | inconclusive: 50.1 µM [inhibitor, partial curve, poor fit]
17 | Cc1c(CCC(=O)O)c(=O)oc2cc3occ(-c4ccccc4)c3cc12 | inconclusive: 79.4 µM [inhibitor, partial curve]
18 | CCCCNC(=O)C(=O)Nc1ccc2c(c1)N(S(=O)(=O)c1cccs1)CCC2 | inactive
19 | O=C(CCc1n[nH]c(=O)[nH]c1=O)N/N=C/c1ccco1 | inconclusive: 56.2 µM [inhibitor, partial curve, poor fit]
20 | CC(C)(C)c1ccc2c(c1)OC(C(=O)N/N=C\c1ccc(-c3cccc(C(=O)O)c3)o1)CO2 (centres undefined) | active: 11.2 µM
21 | COc1cccc(OC)c1OC(=O)C1CC(=O)N(c2ccc3c(c2)OCCO3)C1 (centres undefined) | active: 28.2 µM
22 | C=CC(C)(C)c1c(O)c(CC=C(C)C)c(O)c2c(=O)c3ccc(O)c(O)c3oc12 | inactive

Row | SMILES | Potency
23 | CC1CCC(NC(=O)c2ccc3c(c2)N(Cc2cccc(Cl)c2)C(=O)c2ccccc2S3=O)CC1 (centres undefined) | inactive
24 | COc1cc(C2Nc3ccccc3C(=O)N2c2ccccc2OC)ccc1O (centres undefined) | inconclusive: 0.794 µM [inhibitor, full curve, poor fit]
25 | CN(O)/C=C/C(=O)c1ccc(Br)cc1 | inactive
26 | CC(C)CCn1cnc2c([nH]c3cccc(Cl)c32)c1=O | inconclusive: 22.4 µM [inhibitor, partial curve, poor fit]
27 | COc1cc(/C=N/NC(=O)c2sc(N)c(C#N)c2C)cc(Br)c1O | inconclusive: 28.2 µM [inhibitor, single point]
28 | Cc1ccc(OCC(=O)Nc2cc(C(=O)O)cc(C(=O)O)c2)cc1C | inactive
29 | O=C(O)c1cc(S(=O)(=O)Nc2ccc3cn[nH]c3c2)ccc1Br | active: 50.1 µM
30 | COc1cc(/C=N/NC(=O)c2cc3ccccc3[nH]2)ccc1O | inconclusive: 70.8 µM [inhibitor, partial curve, poor fit]
31 | O=C1N(CCCl)c2ccc(Br)cc2C12OCCO2 | inactive
32 | CN1C(=O)c2cccc3c(S(=O)(=O)Nc4ccc(O)c(C(=O)O)c4)ccc1c23 | inactive
33 | O=C(CN1CCN(S(=O)(=O)/C=C/c2ccccc2)CC1)NC(=O)NCc1ccco1 | active: 79.4 µM
34 | O=C1c2ccsc2SCCN1Cc1ccc(Cl)cc1Cl | inconclusive: 79.4 µM [inhibitor, partial curve, poor fit]
35 | CCN1CCN(C(=O)c2cc(-c3cccnc3)nc3ccc(Br)cc23)CC1 | inconclusive: 39.8 µM [inhibitor, single point]
36 | COc1ccc(NC(=O)C2CCN(S(=O)(=O)c3c(C)noc3/C=C/c3ccco3)CC2)cc1 | active: 31.6 µM
37 | COc1cc(NS(=O)(=O)c2ccc(Cl)cc2)c(C(=O)O)cc1OC | inconclusive: 31.6 µM [inhibitor, partial curve, poor fit]
38 | C#CCOCCOCCOCCNc1nc(N2CCN(C(=O)Cn3cc(CCCCN)nn3)CC2)nc(N2CCN(C(=O)Cn3cc(CC(C)O)nn3)CC2)n1 (centres undefined) | inactive
39 | CCn1c(SCC(=O)Nc2oc(-c3ccccc3)c(-c3ccccc3)c2C#N)nnc1-c1ccncc1 | active: 70.8 µM
40 | O=C(O)c1cc(-c2ccc(/C=C3/SC(=S)N(Cc4ccccc4)C3=O)o2)ccc1Cl | active: 10 µM
41 | COC(=O)c1sc(N)c(C(=O)OC)c1CSc1nc2sc3c(c2c(=O)n1C)CCC3 | inconclusive: 22.4 µM [inhibitor, partial curve, poor fit]
42 | O=C(NCCN1C(=O)S/C(=C/c2cccnc2)C1=O)c1ccc(S(=O)(=O)N2CCCC2)cc1 | inconclusive: 15.8 µM [inhibitor, full curve, poor fit]
43 | CCN(CC)c1ccc2cc(-c3nc4ccccc4[nH]3)c(=O)oc2c1 | inconclusive: 7.08 µM [inhibitor, partial curve]
44 | O=C(CC1C[C@H](C(=O)N2CCOCC2)[C@@]2(CCC3CCCC3)c3[nH]c4ccccc4c3CCN2C1=O)NCCCn1ccnc1 (some centres undefined) | inconclusive: 100 µM [inhibitor, partial curve, poor fit]
